Data: patent US20220267402A1 (SERPENTIDE, published 2022)

Target: human GLP1 receptor (on HEK293-CNG-HuGLP1R stable cells) (human, UniProt P43220 24-463)
Assay: cell-based or functional assay

| EC50, cAMP bioassay on HEK293-CNG-HuGLP1R cells (after Factor Xa predigestion) | Binder |
| --- | --- |
| 617 nM | pTG3: hGLP1R ECD-3xG4S-RKRR-Trulicity (lot#U5585DH140S05/P90011809) (Fc fusion) RPQGATVSLWETVQKWREYRRQCQRSLTEDPPPATDLFCNRTFDEYACWPDGEPGSFVNVSCPWYLPWASSVPQGHVYRFCTAEGLWLQKDNSSLPWRDLSECEESKRGERSSPEEGGGGSGGGGSGGGGSRKRRHGEGTFTSDVSSYLEEQAAKEFIAWLVKGGGGGGGSGGGGSGGGGSA[omitted - human IgG4 Fc with S228P F234A L235A (EU numbers)] |
| 25 nM | p7: hGLP1R ECD(R108G)-3xG4S-RGER-Trulicity (lot#U2243DL140-4/P9EA001) (Fc fusion) RPQGATVSLWETVQKWREYRRQCQRSLTEDPPPATDLFCNRTFDEYACWPDGEPGSFVNVSCPWYLPWASSVPQGHVYRFCTAEGLWLQKDNSSLPWRDLSECEESKGGERSSPEEGGGGSGGGGSGGGGSRGERHGEGTFTSDVSSYLEEQAAKEFIAWLVKGGGGGGGSGGGGSGGGGSA[omitted - human IgG4 Fc with S228P F234A L235A (EU numbers)] |
| 120 nM | p10: hGLP1R ECD(R108G)-3xG4S-RR-Trulicity (lot#U2243DL140-19/P9EA001) (Fc fusion) RPQGATVSLWETVQKWREYRRQCQRSLTEDPPPATDLFCNRTFDEYACWPDGEPGSFVNVSCPWYLPWASSVPQGHVYRFCTAEGLWLQKDNSSLPWRDLSECEESKGGERSSPEEGGGGSGGGGSGGGGSRRHGEGTFTSDVSSYLEEQAAKEFIAWLVKGGGGGGGSGGGGSGGGGSA[omitted - human IgG4 Fc with S228P F234A L235A (EU numbers)] |
| 26.9 nM | p11: hGLP1R ECD(R108G)-3xG4S-RKR-Trulicity (lot#U2243DL14024/P9EA001) (Fc fusion) RPQGATVSLWETVQKWREYRRQCQRSLTEDPPPATDLFCNRTFDEYACWPDGEPGSFVNVSCPWYLPWASSVPQGHVYRFCTAEGLWLQKDNSSLPWRDLSECEESKGGERSSPEEGGGGSGGGGSGGGGSRKRHGEGTFTSDVSSYLEEQAAKEFIAWLVKGGGGGGGSGGGGSGGGGSA[omitted - human IgG4 Fc with S228P F234A L235A (EU numbers)] |
